Experimental findings from PubChem BioAssay AID1240 (Sanford-Burnham Center for Chemical Genomics, 2008) are described below.

SMILES strings stand for the structures. Among all 50,000 compounds or so, about 800 (1.6%) showed an effect of 50% or more. Some of the results follow.

This test concerns the target Bcl-2-like protein 10 (Homo sapiens) (UniProt Q9HD36). Kind of test: TR3 peptide-Bcl-B binding displacers, biochemical primary FP assay, phenotype converters (AID 1240).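 Further: 0% = Bcl-B with tracer peptide and DMSO and 100% = tracer peptide lacking Bcl-B.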 The following applies: GST-Bcl-B / FITC-TR3 peptide fluorescence polarization; stronger effect = higher value; compound at 3.75 mg/L.
Chain of UniProt Q9HD36 (Q9HD36 whole entry, looked up): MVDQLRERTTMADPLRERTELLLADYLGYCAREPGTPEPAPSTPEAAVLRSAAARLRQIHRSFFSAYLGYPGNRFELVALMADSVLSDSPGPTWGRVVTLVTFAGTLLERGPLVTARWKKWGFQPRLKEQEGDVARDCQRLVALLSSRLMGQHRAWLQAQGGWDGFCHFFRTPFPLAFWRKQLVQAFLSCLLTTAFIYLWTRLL
For the compound `Oc1cccnc1-c1ccccc1`, the displacement stood at 2.1%.

For the compound `O=C(Nc1ccccc1-c1ccccc1)c1ccc([N+](=O)[O-])cc1`, the displacement turned out to be 0.9%.

In the case of `COC(=O)c1c(-c2ccc(C3CCCCC3)cc2)csc1N`, the displacement is -4%.

As to `CCOc1ccc(C(=O)COC(=O)c2ccccc2Br)cc1`, the displacement was -0.5%.

Turning to `CSc1nnc2sc3ccccc3n12`, the displacement was 0.4%.

Take `O=C(c1ccc([N+](=O)[O-])cc1Cl)N1CCN(c2ccccc2)CC1`: the displacement is -8.9%.

For the compound `O=C(Nc1nnc(-c2ccc([N+](=O)[O-])cc2)s1)c1cccs1`, the displacement is 8.7%.

Take `CCN(CC)S(=O)(=O)c1ccc(NC(=O)C(F)(F)F)cc1`: the displacement is -0.3%.

Take `COc1ccc(N(CC(=O)NCC2CCCO2)S(=O)(=O)c2ccc(C)cc2)cc1` (centres undefined): the displacement is -0.5%.

As for `O=C(NC(c1ccccc1)C(Cl)Cl)c1ccccc1` (centres undefined), the displacement is 2%.

In the case of `O=C(CC1Sc2ccc(C(F)(F)F)cc2NC1=O)Nc1ccccc1` (centres undefined), the displacement is 1.9%.

Take `O=[N+]([O-])c1ccc(C=Nc2cc3c(cc2Br)OCCO3)cc1`: the displacement is 13.2%.

Turning to `O=c1oc2c(CN3CCOCC3)c(O)ccc2cc1-c1nc2ccccc2s1`, the displacement came to 118%.

Consider `COc1ccccc1CNC(=O)c1ccc(CN(c2ccccc2)S(C)(=O)=O)cc1`, for which the displacement is 0.4%.

Turning to `Cc1nnc(N/N=C/c2cccc(Br)c2)[nH]c1=O`, the displacement was -9.5%.

In the case of `O=C(/C=C/c1ccccc1Cl)Nc1ccc(F)c(F)c1`, the displacement was 9.7%.

On to `O=C(CSc1cc(Cl)ccc1Cl)Nc1ccccc1Br`, for which the displacement was found to be 12.9%.

`COc1ccccc1C(=O)Nc1ccc2c(c1)OCO2`: the displacement came out at 4.5%.

`CCCN(CCC)CCSc1nc(O)c(C(C)C)c(=O)[nH]1`: the displacement is -3.1%.

On to `COc1ccc(N2C(=O)NC(=O)/C(=C/c3cc(Cl)c(O)c(OC)c3)C2=O)cc1`, for which the displacement is -15.5%.

Consider `Cc1nc2cc(-c3ccccc3Cl)[nH]n2c(=O)c1C`, for which the displacement was 13.6%.

Take `CCCCn1c(CCCO)nc2ccccc21`: the displacement was determined as 7.2%.

With `COc1ccc(N2C(=O)CC(N(CCc3ccccc3)C(=S)Nc3ccccc3)C2=O)cc1` (centres undefined), the displacement was -12.8%.

On to `COc1ccc(NC2=NC3(CCCC3)N=C(N)N2)cc1`, for which the displacement was -6.7%.

On to `CCc1c(C)sc(NC(=O)C2CCCCC2C(=O)O)c1C(N)=O` (centres undefined), for which the displacement is 2.9%.

Take `O=c1c(Oc2ccccc2Br)c(C(F)(F)F)oc2cc(O)ccc12`: the displacement came out at 3%.

Turning to `Cc1ccc(-c2nc3cc(Cl)ccc3o2)cc1NC(=O)C(Cl)(Cl)Cl`, the displacement turned out to be 2.9%.

`O=C1C(=O)N(c2ccccn2)C(c2cccnc2)/C1=C(/O)c1ccc(Br)cc1` (centres undefined): the displacement is -25.5%.

Consider `O=C(Cc1ccc(Cl)cc1)NCCCN1CCOCC1`, for which the displacement is -3.1%.

On to `NS(=O)(=O)c1ccc(NC(=O)Nc2cccc(Cl)c2)cc1`, for which the displacement was 11.6%.

With `NS(=O)(=O)c1ccc(CCNC(=O)Nc2cccc(Cl)c2)cc1`, the displacement was 13.4%.

As for `O=C(Cn1c2ccccc2c(=O)c2ccccc21)N/N=C/c1cc([N+](=O)[O-])ccc1N1CCCCCC1`, the displacement was -7%.

Turning to `CCOC(=O)C1=C(C)OC(N)=C(C#N)C1c1ccccc1Cl` (centres undefined), the displacement worked out at 2%.

For the compound `COc1cc(C2CC(=O)Nc3c2ccc2ccccc32)c(OC)cc1Br` (centres undefined), the displacement was -2.9%.

In the case of `CCOC(=O)c1sc(C)c2c(=O)n(CCc3ccccc3)nnc12`, the displacement is -7.7%.

With `CC(C(=O)O)N1C(=O)/C(=C/c2cccc(Br)c2)SC1=S` (centres undefined), the displacement is -6.3%.

`O=C(NCc1ccccc1)C1CN(S(=O)(=O)c2ccccc2)CCN1S(=O)(=O)c1ccccc1` (centres undefined): the displacement is 9%.

As for `O=C1N=c2ccc([N+](=O)[O-])cc2=C1c1sc(NS(=O)(=O)c2ccccc2)nc1O`, the displacement came to 13%.

Regarding `O=C(c1cccc(Br)c1)N1N=C(c2ccc(F)cc2)CC1(O)C(F)(F)F` (centres undefined), the displacement came to 3.9%.

For the compound `COc1ccc2c(=O)c(-c3ccccc3OC)c(C(F)(F)F)oc2c1`, the displacement was determined as 6.3%.

With `CCOc1ccc(NC(=O)c2ccc(C#Cc3ccccc3)cc2)cc1`, the displacement is -9.1%.

With `Cc1ccc(/C=C/C(=O)Nc2ccc(S(N)(=O)=O)cc2)cc1`, the displacement was -8%.

For the compound `NS(=O)(=O)c1ccc(NC(=O)c2ccc(Br)o2)cc1`, the displacement was 8.2%.

With `Cc1ccc(C(=O)N2N=C(c3ccccc3)CC2(O)C(F)(F)F)cc1` (centres undefined), the displacement amounted to 1.9%.

Consider `OCC1(CO)COC2(CCN(Cc3ccccc3)CC2)N1`, for which the displacement is -2.4%.

As for `CCOC(=O)c1ccc(-c2ccc(/C=C3/SC(=S)N(CC(=O)O)C3=O)o2)cc1`, the displacement is -83.7%.

In the case of `CCN=C(NCC)SC1CC(=O)N(c2cccc(OCC)c2)C1=O` (centres undefined), the displacement was -3.2%.

With `CCC1(C)CC(CCNCc2ccc(N(C)C)cc2)(c2ccc(OC)cc2)CCO1` (centres undefined), the displacement was -0.8%.

With `Cc1ccc(C(C)C)c(OCC(O)Cn2cnc3cc(C)c(C)cc32)c1` (centres undefined), the displacement came out at 1.1%.

Regarding `COC(=O)c1cc(-c2ccc(OC)cc2)nc2ccc(Br)cc12`, the displacement is -4.1%.

On to `CC(C)Cn1cc(I)c(=O)n(CC(C)C)c1=O`, for which the displacement was -7.6%.

Consider `COc1cccc(C=C2C(=O)NC(=O)NC2=O)c1O`, for which the displacement turned out to be 12.7%.

Take `C=CCOC(=O)C1=C(C)NC(C)=C(C(=O)OCC=C)C1c1ccc(C)o1`: the displacement is 12.2%.

Consider `CCOC(=O)c1sc(NC(=O)COc2cccc(C)c2C)nc1C`, for which the displacement was -3.2%.

For the compound `CC(C)c1cc(NS(=O)(=O)c2ccc(Cl)cc2)cc(C(C)C)c1O`, the displacement was -2.2%.

In the case of `CC(C)(C)NCC(=O)NCCNc1ccc([N+](=O)[O-])cc1Cl`, the displacement is -4.8%.

On to `Cc1cc(=O)[nH]c(SCc2ccc(Cl)cc2Cl)n1`, for which the displacement is 14.5%.

As for `COc1cc([N+](=O)[O-])ccc1NC(=O)CC(C)=O`, the displacement was -5.3%.

As to `CCOc1ccc2c(c1)C(c1ccccc1C(F)(F)F)CC(=O)N2` (centres undefined), the displacement is -5.2%.

As to `O=C(Nc1ccccn1)c1cc(-c2ccc(Cl)c(Cl)c2)nc2ccccc12`, the displacement was 10%.

`CC(C)CC(=O)N1CCN(C(=O)COc2ccc3ccccc3c2)CC1`: the displacement is 1.4%.

Regarding `CCCOc1ccc(N2C(=O)CC(N(Cc3ccc(OC)cc3)C(=O)/C=C/C(=O)O)C2=O)cc1` (centres undefined), the displacement came to 3.3%.

As for `Cc1ccc(Nc2nnc(-c3ccc(C(=O)NCCO)cc3)c3ccccc23)c(C)c1`, the displacement amounted to 0.8%.

For `COc1ccc2c(c1)CCC/C2=N/NC(=O)c1ccoc1C`, the displacement amounted to 1%.

Regarding `COc1ccc(NC(=O)COc2ccccc2OC)c(OC)c1`, the displacement came out at 9.6%.

On to `O=C(O)CCCCCN1C(=O)C(O)=C(C(=O)/C=C/c2ccccc2)C1c1ccc(O)cc1` (centres undefined), for which the displacement is -1.3%.

In the case of `COc1ccc(C(=O)N2CCN(C3CCN(Cc4ccccc4)CC3)CC2)cc1OC`, the displacement is -8.5%.

As for `CC(C)(CO)C(O)C(=O)NCc1ccc(C(=O)O)cc1` (centres undefined), the displacement is -3.3%.

For the compound `CCOC(=O)c1c(-c2ccccc2)oc2c1C(=O)c1ccccc1C2=O`, the displacement is -0.2%.

For the compound `O=C(NCCN1CCN(C(=O)c2ccc([N+](=O)[O-])cc2)CC1)C(=O)Nc1ccc(Cl)cc1`, the displacement was 16.8%.

Regarding `CC(C)c1ccccc1NC(=O)C1C2C=CC(C2)C1C(=O)O` (centres undefined), the displacement came out at 9.2%.

Turning to `CCc1ccc(CN2CCN(C(=O)CC(C)C)CC2)cc1`, the displacement was 7.7%.

Regarding `CCOC(=O)c1c(NC(C)=O)sc2c1CCC/C2=N/OC(=O)c1ccccc1`, the displacement turned out to be 6.5%.

For `O=C(Nc1c[nH]c(=O)[nH]c1=O)c1ccccc1Cl`, the displacement was found to be 0.1%.

For `CCC(C(=O)N1CCN(c2cccc(Cl)c2)CC1)c1ccccc1` (centres undefined), the displacement was found to be 9.6%.

Consider `Fc1ccccc1CSc1nnnn1-c1ccccc1F`, for which the displacement was -6%.

As for `O=C1CC(c2ccccc2)CC2=C1C(c1ccc(Br)cc1)Nc1ccccc1N2` (centres undefined), the displacement was -2.5%.

In the case of `O=C(O)c1cccc(NC(=O)c2ccc(COc3ccc(Cl)cc3)cc2)c1`, the displacement was -6.6%.

Take `O=C(O)c1sc2cccc(Cl)c2c1Cl`: the displacement is -8.3%.

Turning to `O=C(c1ccncc1)N1CCN(Cc2ccccc2C(F)(F)F)CC1`, the displacement was -1.1%.

For the compound `COc1ccc(CCC(=O)Nc2sc3c(c2C(N)=O)CCCCC3)cc1`, the displacement amounted to 16.3%.

Regarding `O=C1C2C3C=CC(CC3)C2C(=O)N1/N=C/c1cc([N+](=O)[O-])cc(Br)c1O` (centres undefined), the displacement amounted to 7.3%.

For the compound `COc1ccc(N2C(=O)/C(=C/c3cc(Br)c(OC)c(OC)c3)C(=O)NC2=S)cc1`, the displacement was -1.9%.

Regarding `COc1ccc(/C(N)=N/OC(=O)COc2ccc(C)cc2C)cc1`, the displacement is -2.1%.

With `COc1ccc(N(CC(=O)Nc2ccc3ccccc3c2)S(=O)(=O)c2ccc(C)cc2)cc1`, the displacement was 3.5%.

Turning to `O=C(Nc1nc(-c2cccc3ccccc23)cs1)c1cccs1`, the displacement is -1.5%.

In the case of `COc1cc(C2/C(=C(/O)c3ccccc3)C(=O)C(=O)N2c2cccc(C(F)(F)F)c2)ccc1O` (centres undefined), the displacement turned out to be 3.8%.

Turning to `COc1ccc(S(=O)(=O)N2CCN(C(=O)c3ccco3)CC2)cc1`, the displacement was 12.3%.

`O=C(O)/C(=C\c1ccccc1)NC(=O)c1ccccc1I`: the displacement was 1.7%.

As to `O=C(CC(=O)N/N=C/c1c(Cl)cccc1Cl)NCc1cccnc1`, the displacement is -0.6%.

Regarding `CCOC(=O)c1nc2ccccc2[nH]c1=O`, the displacement amounted to 14.3%.

In the case of `Cc1onc(-c2ccccc2Cl)c1C(=O)Nc1cccc(C(=O)O)c1`, the displacement was -11.7%.

As for `COc1cc2ccccc2cc1C(=O)Nc1cccc(S(N)(=O)=O)c1`, the displacement was -3.5%.

Consider `CS(=O)(=O)N(CC(=O)NCCNC(=O)CN(c1ccc(Cl)cc1)S(C)(=O)=O)c1ccc(Cl)cc1`, for which the displacement came out at 11.6%.

As to `Cc1cc(N/C=C/C(=O)c2ccccc2)ccc1Br`, the displacement was -6.8%.

Turning to `CN(C)CCN1C(=O)C(=O)/C(=C(/O)c2ccccc2)C1c1cccc([N+](=O)[O-])c1` (centres undefined), the displacement is -11.2%.

For the compound `COc1ccc(Oc2c(C(F)(F)F)oc3cc(O)ccc3c2=O)cc1`, the displacement was determined as 8.5%.

Turning to `CCOc1ccc(N2C(=O)NC(=O)/C(=C\c3cc(Br)ccc3OC)C2=O)cc1`, the displacement was found to be 3.9%.

In the case of `C=CCN1C(=O)/C(=C\c2cc(Cl)c(O)c(Cl)c2)C(=O)NC1=S`, the displacement was -15.5%.

For `CCOc1ccc(/C=C2\C(=O)NC(=O)N(c3ccc(Cl)cc3)C2=O)c(OCC)c1`, the displacement was -11%.

Regarding `COc1ccc(/C(N)=N/OC(=O)COc2ccc(C(C)(C)C)cc2)cc1`, the displacement is -3.1%.

Take `O=C(COC(=O)C1CC(=O)N(c2ccc(Cl)cc2)C1)c1ccccc1` (centres undefined): the displacement is 9.1%.

On to `O=C(c1ccc([N+](=O)[O-])cc1)N1CCN(CC2CC3C=CC2C3)CC1` (centres undefined), for which the displacement is -6.8%.

For `c1ccc2cc(CN3CCN(Cc4ccncc4)CC3)ccc2c1`, the displacement was -19.4%.

For the compound `Cn1ccnc1/C=C(/OC(=O)c1ccc(Cl)cc1)c1ccc(Cl)cc1`, the displacement stood at 22%.

Turning to `CC1(C)OC2OC(C(=O)Nc3ccccc3)C3OC(C)(C)OC3C2O1` (centres undefined), the displacement came to 10%.

As for `COc1ccc(/C=C2\C(=O)NC(=O)N(c3ccc(Br)cc3)C2=O)c(C)c1`, the displacement is -11.3%.

For `CCCC1=NN2C(=N)/C(=C/c3cc(OC)ccc3OC)C(=O)N=C2S1`, the displacement was -0.5%.

As to `O=[N+]([O-])c1cccc(S(=O)(=O)Nc2ccc3c(c2)OCO3)c1`, the displacement was 3.4%.
